# The other results are listed elsewhere or left out.
# B1: PA-IL (Pseudomonas aeruginosa), Q05097 (protein)
# chain: MAWKGEVLANNEAGQVTSIIYNPGDVITIVAAGWASYGPTQKWGPQGDREHPDQGLICHDAFCGALVMKIGNSGTIPVNTGLFRWVAPNNVQGAITLIYNDVPGTYGNNSGSFSVNIGKDQS
# Assays:
# Assay in all cases: glycan array binding signal (z-score within array); higher = stronger binding
# Details in all cases: glycan notation: IUPAC condensed, linker removed
# [1] = target: Fuc(a1-2)Gal(b1-4)GlcNAc(b1-2)[Fuc(a1-2)Gal(b1-4)GlcNAc(b1-4)]Man(a1-3)[Fuc(a1-2)Gal(b1-4)GlcNAc(b1-2)Man(a1-6)]Man(b1-4)GlcNAc(b1-4)GlcNAc
# Summary of the method: (§1)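 Glycan array data were curated from 3228 arrays in the Consortium for Functional Glycomics database and kept only where the protein sequence was available. Glycan names were converted to IUPAC-condensed notation, and columns mapping to the same glycan were averaged. The binding signal is a within-array Z-score, averaged across arrays of the same protein sequence at different concentrations or buffers and across linkers. Negative Z-scores can be read as non-binding.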
# [2] = target: Fuc(a1-2)Gal(b1-4)GlcNAc(b1-3)Gal(b1-4)GlcNAc
# Summary of the method: as §1
# [3] = target: Fuc(a1-2)Gal(b1-4)GlcNAc(b1-3)Gal(b1-4)GlcNAc(b1-2)Man(a1-3)[Fuc(a1-2)Gal(b1-4)GlcNAc(b1-3)Gal(b1-4)GlcNAc(b1-2)Man(a1-6)]Man(b1-4)GlcNAc(b1-4)GlcNAc
# Summary of the method: as §1
# [4] = target: Fuc(a1-2)Gal(b1-4)GlcNAc(b1-3)Gal(b1-4)GlcNAc(b1-3)Gal(b1-4)GlcNAc
# Summary of the method: as §1
# [5] = target: Fuc(a1-2)Gal(b1-4)GlcNAc(b1-3)GalNAc
# Summary of the method: as §1
# [6] = target: Fuc(a1-2)Gal(b1-4)GlcNAc(b1-3)[Fuc(a1-2)Gal(b1-4)GlcNAc(b1-6)]GalNAc
# Summary of the method: as §1
# [7] = target: Fuc(a1-2)Gal(b1-4)GlcNAc(b1-3)[Fuc(a1-3)[Gal(b1-4)]GlcNAc(b1-6)]Gal(b1-4)Glc
# Summary of the method: as §1
# [8] = target: Fuc(a1-2)Gal(b1-4)GlcNAc(b1-6)GalNAc
# Summary of the method: as §1
# [9] = target: Fuc(a1-2)Gal(b1-4)GlcNAc6S
# Summary of the method: as §1
# [10] = target: Fuc(a1-2)Gal(b1-4)[Fuc(a1-3)]GlcNAc
# Summary of the method: as §1
# [11] = target: Fuc(a1-2)Gal(b1-4)[Fuc(a1-3)]GlcNAc(b1-2)Man(a1-3)[Fuc(a1-2)Gal(b1-4)[Fuc(a1-3)]GlcNAc(b1-2)Man(a1-6)]Man(b1-4)GlcNAc(b1-4)GlcNAc
# Summary of the method: as §1
# [12] = target: Fuc(a1-2)Gal(b1-4)[Fuc(a1-3)]GlcNAc(b1-2)Man(a1-3)[Fuc(a1-2)Gal(b1-4)[Fuc(a1-3)]GlcNAc(b1-2)Man(a1-6)]Man(b1-4)GlcNAc(b1-4)[Fuc(a1-6)]GlcNAc
# Summary of the method: as §1
# [13] = target: Fuc(a1-2)Gal(b1-4)[Fuc(a1-3)]GlcNAc(b1-2)[Fuc(a1-2)Gal(b1-4)[Fuc(a1-3)]GlcNAc(b1-4)]Man(a1-3)[Fuc(a1-2)Gal(b1-4)[Fuc(a1-3)]GlcNAc(b1-2)Man(a1-6)]Man(b1-4)GlcNAc(b1-4)GlcNAc
# Summary of the method: as §1
# [14] = target: Fuc(a1-2)Gal(b1-4)[Fuc(a1-3)]GlcNAc(b1-3)Gal(b1-4)[Fuc(a1-3)]GlcNAc
# Summary of the method: as §1
# [15] = target: Fuc(a1-2)Gal(b1-4)[Fuc(a1-3)]GlcNAc(b1-3)Gal(b1-4)[Fuc(a1-3)]GlcNAc(b1-3)Gal(b1-4)[Fuc(a1-3)]GlcNAc
# Summary of the method: as §1
# [16] = target: Fuc(a1-2)Gal(b1-4)[Fuc(a1-3)]GlcNAc(b1-3)GalNAc
# Summary of the method: as §1
# [17] = target: Fuc(a1-2)Gal(b1-4)[Fuc(a1-3)]GlcNAc(b1-3)[Neu5Ac(a2-6)Gal(b1-4)GlcNAc(b1-6)]Gal(b1-4)Glc
# Summary of the method: as §1
# [18] = target: Fuc(a1-2)Gal3S(b1-4)GlcNAc
# Summary of the method: as §1
# [19] = target: Fuc(a1-2)Gal6S(b1-3)GlcNAc
# Summary of the method: as §1
# [20] = target: Fuc(a1-2)Gal6S(b1-3)GlcNAc6S
# Summary of the method: as §1
# [21] = target: Fuc(a1-2)Gal6S(b1-4)Glc
# Summary of the method: as §1
# [22] = target: Fuc(a1-2)Gal6S(b1-4)Glc6S
# Summary of the method: as §1
# [23] = target: Fuc(a1-2)Gal6S(b1-4)GlcNAc
# Summary of the method: as §1
# [24] = target: Fuc(a1-2)[Gal(a1-3)]Gal
# Summary of the method: as §1
# [25] = target: Fuc(a1-2)[Gal(a1-3)]Gal(b1-3)GalNAc
# Summary of the method: as §1
# [26] = target: Fuc(a1-2)[Gal(a1-3)]Gal(b1-3)GalNAc(b1-3)Gal(a1-4)Gal(b1-4)Glc
# Summary of the method: as §1
# [27] = target: Fuc(a1-2)[Gal(a1-3)]Gal(b1-3)GlcNAc
# Summary of the method: as §1
# [28] = target: Fuc(a1-2)[Gal(a1-3)]Gal(b1-3)GlcNAc(b1-2)Man(a1-3)[Fuc(a1-2)[Gal(a1-3)]Gal(b1-3)GlcNAc(b1-2)Man(a1-6)]Man(b1-4)GlcNAc(b1-4)GlcNAc
# Summary of the method: as §1
# [29] = target: Fuc(a1-2)[Gal(a1-3)]Gal(b1-3)GlcNAc(b1-2)Man(a1-3)[Fuc(a1-2)[Gal(a1-3)]Gal(b1-3)GlcNAc(b1-2)Man(a1-6)]Man(b1-4)GlcNAc(b1-4)[Fuc(a1-6)]GlcNAc
# Summary of the method: as §1
# [30] = target: Fuc(a1-2)[Gal(a1-3)]Gal(b1-3)GlcNAc(b1-3)GalNAc
# Summary of the method: as §1
binder,measurement,setting,value
B1,glycan array binding signal (z-score),[1],-0.197
same,glycan array binding signal (z-score),[2],-0.231
same,glycan array binding signal (z-score),[3],-0.217
same,glycan array binding signal (z-score),[4],-0.223
same,glycan array binding signal (z-score),[5],-0.216
same,glycan array binding signal (z-score),[6],-0.208
same,glycan array binding signal (z-score),[7],-0.243
same,glycan array binding signal (z-score),[8],-0.201
same,glycan array binding signal (z-score),[9],-0.226
same,glycan array binding signal (z-score),[10],-0.23
same,glycan array binding signal (z-score),[11],-0.221
same,glycan array binding signal (z-score),[12],-0.206
same,glycan array binding signal (z-score),[13],-0.185
same,glycan array binding signal (z-score),[14],-0.206
same,glycan array binding signal (z-score),[15],-0.213
same,glycan array binding signal (z-score),[16],-0.192
same,glycan array binding signal (z-score),[17],-0.236
same,glycan array binding signal (z-score),[18],-0.217
same,glycan array binding signal (z-score),[19],-0.225
same,glycan array binding signal (z-score),[20],-0.184
same,glycan array binding signal (z-score),[21],-0.229
same,glycan array binding signal (z-score),[22],-0.226
same,glycan array binding signal (z-score),[23],-0.222
same,glycan array binding signal (z-score),[24],0.664
same,glycan array binding signal (z-score),[25],0.269
same,glycan array binding signal (z-score),[26],-0.186
same,glycan array binding signal (z-score),[27],0.039
same,glycan array binding signal (z-score),[28],0.564
same,glycan array binding signal (z-score),[29],-0.189
same,glycan array binding signal (z-score),[30],-0.21
